About 930 (0.24%) of roughly 390,000 compounds were called active. The shares of active, inactive and inconclusive entries below differ from those in the screen. Calls follow the shape of the dose curve; as a rule, active = well fitted activation curve with a large enough effect; inconclusive = small, poorly fitted or top-dose-only effect; inactive = no such curve, though single readings can be large or run the other way. Where the call is inconclusive, the potency comes from a doubtful curve fit.
Experiment: qHTS for Suppressors of FUS Proteinopathy: Primary screen using FUS-linked yeast assay; also: nearly all actives have a fitted effect of over 55% in size;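 as to growth rescue (activation): plate controls were DMSO vehicle for no effect and reference control for full effect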
Settings: S. cerevisiae FUS-expressing, OD600, 24 h; Potency: growth rescue; growth rescue (activation): at 76.6 µM (top of the series)
Method in brief: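 FUS-expressing yeast, raffinose-pregrown, induced in 2% galactose minimal medium at OD 0.005; compounds in a dilution series, 24hr at 30C. Growth restoration read as absorbance at 600 nm. CP55940 positive control, DMSO negative.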
Potency is read from the fitted curve at half-maximal effect; tags tell the direction and shape of the fitted curve.

SMILES	Potency	growth rescue (activation)
COc1ccccc1N1CCN(C(=O)c2oc3ccc(F)cc3c2C)CC1	inactive	–
CC1=C(C(=O)N(C)C)CC(CC(=O)NCc2cccs2)C(=O)N1Cc1ccc(C(C)(C)C)cc1 (centres undefined)	inconclusive: 12.6 µM [activator, partial curve]	–
CCS(=O)(=O)N1CC(=O)N(c2cccc(C)c2C)C(C)(C(=O)NC2CCCCC2)C1 (centres undefined)	inactive	–
O=C(CCN1CCCCCC1)Nc1ccc2c(c1)OCCO2	inactive	–
Cc1ccc(CCNc2nc3c(S(=O)(=O)c4ccc(C)cc4)nnn3c3ccsc23)cc1	inactive	–
CCCOC(=O)c1ccc(NC(=O)C2CCCO2)cc1 (centres undefined)	inactive	–
Cc1cccc(-c2nc3scc(CCNC(=O)c4ccccc4Cl)n3n2)c1	inactive	–
COc1ccc(NC(=O)CSCC(=O)Nc2nnc(CC(C)C)s2)cc1	inconclusive: 44.7 µM [activator, partial curve, poor fit]	–
Cc1cc(Cl)ccc1-n1c(-c2cccnc2)n[nH]c1=S	inconclusive: 0.891 µM [activator, full curve, poor fit]	–
O=c1[nH]c(=S)[nH]c2nc(-c3ccccc3)cnc12	inactive	–
Cc1ccc(-n2c(C)cc(/C([O-])=C(/C(=S)Nc3ccc(F)c(Cl)c3)[n+]3ccccc3)c2C)cc1	inconclusive: 35.5 µM [activator, partial curve, poor fit]	–
COc1ccc(CNC(=O)C[C@H]2C[C@H](C(=O)N(C(C)C)C(C)C)[C@@]3(C)c4[nH]c5ccc(Cl)cc5c4CCN3C2=O)cc1OC	inconclusive: 35.5 µM [activator, single point]	–
Cc1nn(Cc2ccc(F)cc2)c(C)c1NC(=O)c1cnn2c1NC(c1cccs1)CC2C(F)(F)F (centres undefined)	active: 28.2 µM	–
O=S(=O)(NC1C2CC3CC(C2)CC1C3)c1ccc(F)cc1 (centres undefined)	inactive	–
O=C(CC1(O)C(=O)N(CCc2ccccc2)c2ccc(Br)cc21)c1ccccc1O (centres undefined)	inconclusive: 35.5 µM [activator, single point]	–
COc1ccc(SCCN2CC[C@@H](C(C)(C)C)CCC2=O)cc1	inconclusive: 8.91 µM [activator, partial curve]	–
NC(=NC(=O)c1cccc(C(F)(F)F)c1)c1ccc(C(F)(F)F)cn1	inconclusive: 35.5 µM [activator, single point]	–
COc1cc(NC(=O)[C@@H](NC(=O)N2CCn3c2nc2ccccc23)C(C)C)cc(OC)c1	inconclusive: 39.8 µM [activator, single point]	–
COc1ccc(NC(=O)CSC2=C(C#N)C(c3ccco3)C3=C(CCCC3=O)N2)c(OC)c1 (centres undefined)	inconclusive: 22.4 µM [activator, single point]	–
O=S(=O)(c1ccc(Cl)cc1)N1CCN(C(=S)Nc2ccc(F)c(Cl)c2)CC1	inconclusive: 7.08 µM [activator, full curve]	–

SMILES	Potency	growth rescue (activation)
CCCNC(=O)c1cc(-c2ccc(OC)cc2)on1	–	inconclusive: 79.3% [activator]
COCCc1nn2c(=O)cc(COC(=O)c3ccc(C(C)(C)C)cc3)nc2s1	inconclusive: 31.6 µM [activator, single point]	–
Cc1ccc(Nc2nc(N/N=C/c3c[nH]c4ccccc34)nc(N3CCOCC3)n2)cc1	inconclusive: 35.5 µM [activator, partial curve, poor fit]	–
O=C(COC(=O)CCc1nc2ccccc2c(=O)[nH]1)NC(=O)NC1CCCC1	inconclusive: 10 µM [activator, partial curve, poor fit]	–
C[C@@H](c1ccccc1)N1C[C@@H](COCc2ccccc2)Oc2cc(N3CC[C@H](O)C3)ccc2S1(=O)=O	inconclusive: 44.7 µM [activator, single point]	–
C[C@H](CO)N1C[C@H](C)[C@H](CN(C)S(=O)(=O)c2cccc(F)c2)OCc2ccccc2-c2c(n(C)c3ccccc23)C1=O	inconclusive: 22.4 µM [activator, partial curve, poor fit]	–
CC[C@H](C)[C@H](NC(=O)OCc1ccccc1)C(=O)OCC(=O)N1CCN(c2ccc(F)cc2)CC1	inconclusive: 14.1 µM [activator, partial curve]	–
Cc1ccc(-c2c(C(=O)NCCc3ccc(Cl)cc3)oc(=O)c3ccccc23)cc1	active: 15.8 µM	–
Cc1ccc2sc(NNC(=O)C3COc4ccccc4O3)nc2c1C (centres undefined)	inactive	–
CC1=C(C(=O)N(C(C)C)C(C)C)CC(CC(=O)NCc2cccs2)C(=O)N1Cc1ccc(C(C)(C)C)cc1 (centres undefined)	inconclusive: 17.8 µM [activator, partial curve, poor fit]	–
CCN(c1ccccc1)S(=O)(=O)c1ccc(C(=O)Nc2ccccc2OC)cc1	inconclusive: 5.01 µM [activator, full curve]	–
CCN(CC)S(=O)(=O)c1ccc2c(c1)NC(=O)C1CCCN21 (centres undefined)	inconclusive: 25.1 µM [activator, single point]	–
COC(=O)[C@]12C[C@H](CC(=O)NCc3ccccc3)C(=O)N(CCc3ccc(OC)c(OC)c3)C1=C[C@H](C1CCCC1)O[C@@H]2C	inconclusive: 20 µM [activator, partial curve, poor fit]	–
CN(C)c1ccc(C(CNS(=O)(=O)c2ccc(Br)cc2)N2CCOCC2)cc1 (centres undefined)	inactive	–
COCCCNC(=O)C[C@H]1C[C@@]2(C(=O)OC)C(=C[C@H](C(C)(C)C)O[C@@H]2C)N(Cc2cccc3ccccc23)C1=O	inconclusive: 25.1 µM [activator, partial curve, poor fit]	–
CCC(C)(C)NC(=O)C(c1ccc(C)cc1)N(Cc1ccco1)C(=O)Cn1nnc2ccccc21 (centres undefined)	inactive	–
O=C(COc1cccnc1[N+](=O)[O-])Nc1cccc(Br)c1	inactive	–
CC(C)(C)OC(=O)N1CCC(c2c(C(=O)NCc3ccco3)cnn2-c2ccc(F)cc2)CC1	inconclusive: 10 µM [activator, full curve, poor fit]	–
CCNc1nc(NC(C)C)nc(Oc2ccc(OCCOc3ccc(C)cc3)nn2)n1	inconclusive: 35.5 µM [activator, single point]	–
